Assay results published in the supplement of paper PMC4604168 (melanoma cell lines).
Some of the results follow. Most values come without repeats; read them as rough.

What was measured:
Assay in all cases: cell count relative to DMSO control; melanoma cells; higher = more viable cells
Details in all cases: library dose: standard library concentration; 72 h
G361 = system: G361
IPC-298 = system: IPC-298
IST-MEL1 = system: IST-MEL1
LB2518-MEL = system: LB2518-MEL
LOXIMVI = system: LOXIMVI
MEL-HO = system: MEL-HO
MZ2-MEL = system: MZ2-MEL
MeWo = system: MeWo
RPMI7951 = system: RPMI7951
RVH-421 = system: RVH-421
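Note: cells treated in 1,536-well plates, then fixed and DAPI-stained, with nuclei counted from automated high-throughput microscope images.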

Structure (SMILES) | cell count (G361) | cell count (IPC-298) | cell count (IST-MEL1) | cell count (LB2518-MEL) | cell count (LOXIMVI) | cell count (MEL-HO) | cell count (MZ2-MEL) | cell count (MeWo) | cell count (RPMI7951) | cell count (RVH-421)
CC1(C)CCC(c2ccc(Cl)cc2)=C(CN2CCN(c3ccc(C(=O)NS(=O)(=O)c4ccc(N[C@H](CCN5CCOCC5)CSc5ccccc5)c(S(=O)(=O)C(F)(F)F)c4)cc3)CC2)C1 + Cc1cn(-c2cc(NC(=O)c3ccc(C)c(Nc4nccc(-c5cccnc5)n4)c3)cc(C(F)(F)F)c2)cn1 [nilotinib] (first compound 2 µM, partner dose 1 µM) | 60.1% | 88.6% | 67.6% | 78.8% | 102% | 65% | 74.4% | 77.3% | 27.9% | 44.9%
O=C(/C=C/c1cccnc1)NCCCCC1CCN(C(=O)c2ccccc2)CC1 + COc1cc2c(Oc3ccc4[nH]c(C)cc4c3F)ncnc2cc1OCCCN1CCCC1 [cediranib] (first compound 0.05 µM, partner dose 2 µM) | 2.98% | 29.2% | 54.3% | 70% | 62.7% | 48.8% | 48.3% | 113% | 90.7% | 20.3%
O=C(/C=C/c1cccnc1)NCCCCC1CCN(C(=O)c2ccccc2)CC1 + Cc1cc(Nc2cc(N3CCN(C)CC3)nc(/C=C/c3ccccc3)n2)n[nH]1 [ENMD2076] (first compound 0.05 µM, partner dose 0.2 µM) | 3.14% | 20.3% | 71.8% | 57.7% | 72.7% | 32.8% | 27.5% | 85.8% | 77.7% | 24.2%
Cc1ccc(Nc2nccc(N(C)c3ccc4c(C)n(C)nc4c3)n2)cc1S(N)(=O)=O [Pazopanib] + Cn1nnc2c(C(N)=O)ncn2c1=O [temozolomide] (first compound 2 µM, partner dose 10 µM) | 72.1% | 69.4% | 80.6% | 73.6% | 74.5% | 79.7% | 64.2% | 81.4% | 70.4% | 69.3%
O=C(/C=C/c1cccnc1)NCCCCC1CCN(C(=O)c2ccccc2)CC1 + COC(=O)c1sccc1S(=O)(=O)Nc1ccc(Nc2ccccc2)cc1OC [GSK0660] (first compound 0.05 µM, partner dose 5 µM) | 2.56% | 30.1% | 65.3% | 44% | 89.1% | 47.1% | 42.9% | 106% | 91.5% | 33.4%
CC1(C)CCC(c2ccc(Cl)cc2)=C(CN2CCN(c3ccc(C(=O)NS(=O)(=O)c4ccc(N[C@H](CCN5CCOCC5)CSc5ccccc5)c(S(=O)(=O)C(F)(F)F)c4)cc3)CC2)C1 + CN(C)S(=O)(=O)c1ccc2c(c1)/C(=C/c1cc3c([nH]1)CCCC3)C(=O)N2 [SU6656] (first compound 2 µM, partner dose 2 µM) | 45.6% | 71.6% | 47.4% | 59.6% | 48.8% | 40% | 63% | 61% | 15.4% | 46.3%
Cc1ccc(Nc2nccc(N(C)c3ccc4c(C)n(C)nc4c3)n2)cc1S(N)(=O)=O [Pazopanib] + CS(=O)(=O)CCNCc1ccc(-c2ccc3ncnc(Nc4ccc(OCc5cccc(F)c5)c(Cl)c4)c3c2)o1 [lapatinib] (first compound 2 µM, partner dose 4 µM) | 41.4% | 59.8% | 81.3% | 65.7% | 78% | 66.2% | 34% | 50.8% | 25.1% | 66.2%
Cc1ccc(Nc2nccc(N(C)c3ccc4c(C)n(C)nc4c3)n2)cc1S(N)(=O)=O [Pazopanib] + CC(C)C[C@H](NC(=O)[C@H](Cc1ccccc1)NC(=O)c1cnccn1)B(O)O [Bortezomib] (first compound 2 µM, partner dose 0.005 µM) | 0.86% | 11.4% | 6.27% | 2.62% | 26% | 28.5% | 6.13% | 14.9% | 2.34% | 5.77%
Cc1ccc(Nc2nccc(N(C)c3ccc4c(C)n(C)nc4c3)n2)cc1S(N)(=O)=O [Pazopanib] + CN(NC(=O)CC(=O)NN(C)C(=S)c1ccccc1)C(=S)c1ccccc1 [STA4783] (first compound 2 µM, partner dose 0.03 µM) | 39.6% | 68.2% | 29.3% | 46% | 82% | 84.8% | 95.1% | 34% | 68.5% | 74.4%
CC1(C)CCC(c2ccc(Cl)cc2)=C(CN2CCN(c3ccc(C(=O)NS(=O)(=O)c4ccc(N[C@H](CCN5CCOCC5)CSc5ccccc5)c(S(=O)(=O)C(F)(F)F)c4)cc3)CC2)C1 + CNC(=O)c1cc(Oc2ccc(NC(=O)Nc3ccc(Cl)c(C(F)(F)F)c3)cc2)ccn1 [sorafenib] (first compound 2 µM, partner dose 2 µM) | 48.4% | 89.6% | 81.3% | 73.8% | 52.6% | 70.3% | 91.1% | 63.1% | 31.7% | 38.1%
Cc1ccc(Nc2nccc(N(C)c3ccc4c(C)n(C)nc4c3)n2)cc1S(N)(=O)=O [Pazopanib] + C[C@@H]1CCN(C(=O)CC#N)C[C@@H]1N(C)c1ncnc2[nH]ccc12 [CP690550] (first compound 2 µM, partner dose 5 µM) | 97.4% | 77% | 108% | 90.3% | 81.5% | 87% | 84.4% | 96.9% | 75.7% | 112%
Cc1ccc(Nc2nccc(N(C)c3ccc4c(C)n(C)nc4c3)n2)cc1S(N)(=O)=O [Pazopanib] + NC(=O)c1ccc(N(C(N)=O)c2c(F)cccc2F)nc1-c1ccc(F)cc1F [VX702] (first compound 2 µM, partner dose 2 µM) | 77.2% | 77.4% | 104% | 68.3% | 104% | 93.2% | 68.3% | 90.6% | 80.1% | 93.2%
O=C(/C=C/c1cccnc1)NCCCCC1CCN(C(=O)c2ccccc2)CC1 + CC1(C)NC(=O)N(c2ccc([N+](=O)[O-])c(C(F)(F)F)c2)C1=O [nilutamide] (first compound 0.05 µM, partner dose 5 µM) | 3.29% | 43% | 68.2% | 61.2% | 68.9% | 48.5% | 46.5% | 105% | 158% | 36.3%
O=C(/C=C/c1cccnc1)NCCCCC1CCN(C(=O)c2ccccc2)CC1 + CO[C@@H]1[C@H](N(C)C(=O)c2ccccc2)C[C@H]2O[C@]1(C)n1c3ccccc3c3c4c(c5c6ccccc6n2c5c31)C(=O)NC4 [Midostaurin] (first compound 0.05 µM, partner dose 0.4 µM) | 3.29% | 24.2% | 37.4% | 50.2% | 53.8% | 34.4% | 27.9% | 71.8% | 46.1% | 15.5%
CC1(C)CCC(c2ccc(Cl)cc2)=C(CN2CCN(c3ccc(C(=O)NS(=O)(=O)c4ccc(N[C@H](CCN5CCOCC5)CSc5ccccc5)c(S(=O)(=O)C(F)(F)F)c4)cc3)CC2)C1 + c1cc(-c2cnn3cc(-c4ccc(OCCN5CCCCC5)cc4)cnc23)ccn1 [Dorsomorphin] (first compound 2 µM, partner dose 2 µM) | 45.6% | 93.9% | 68.6% | 58.5% | 72.4% | 68.4% | 74.8% | 63.8% | 19.4% | 51.5%
Cc1ccc(Nc2nccc(N(C)c3ccc4c(C)n(C)nc4c3)n2)cc1S(N)(=O)=O [Pazopanib] + NCC(=O)Nc1ccc(-n2nc(C(F)(F)F)cc2-c2ccc3c(ccc4ccccc43)c2)cc1 [OSU03012] (first compound 2 µM, partner dose 5 µM) | 50.9% | 49.9% | 72.4% | 70.7% | 60.8% | 86.2% | 64.2% | 84.4% | 75.7% | 90.5%
Cc1ccc(Nc2nccc(N(C)c3ccc4c(C)n(C)nc4c3)n2)cc1S(N)(=O)=O [Pazopanib] + COc1cc2c(Oc3ccc4[nH]c(C)cc4c3F)ncnc2cc1OCCCN1CCCC1 [cediranib] (first compound 2 µM, partner dose 2 µM) | 90.3% | 81% | 101% | 89.2% | 81.7% | 106% | 92.9% | 110% | 94.9% | 95.9%
Cc1ccc(Nc2nccc(N(C)c3ccc4c(C)n(C)nc4c3)n2)cc1S(N)(=O)=O [Pazopanib] + COc1cc(N2CCC(N3CCN(C)CC3)CC2)ccc1Nc1ncc(Cl)c(Nc2ccccc2S(=O)(=O)C(C)C)n1 [NVP-TAE684] (first compound 2 µM, partner dose 0.4 µM) | 65.1% | 67.9% | 95.1% | 83% | 80.1% | 80.3% | 69.7% | 58.8% | 67.2% | 99%
CC1(C)CCC(c2ccc(Cl)cc2)=C(CN2CCN(c3ccc(C(=O)NS(=O)(=O)c4ccc(N[C@H](CCN5CCOCC5)CSc5ccccc5)c(S(=O)(=O)C(F)(F)F)c4)cc3)CC2)C1 + NCC(=O)Nc1ccc(-n2nc(C(F)(F)F)cc2-c2ccc3c(ccc4ccccc43)c2)cc1 [OSU03012] (first compound 2 µM, partner dose 5 µM) | 37.7% | 55.9% | 59% | 75.4% | 29.7% | 48.1% | 77.5% | 72.5% | 21% | 43.5%
CC1(C)CCC(c2ccc(Cl)cc2)=C(CN2CCN(c3ccc(C(=O)NS(=O)(=O)c4ccc(N[C@H](CCN5CCOCC5)CSc5ccccc5)c(S(=O)(=O)C(F)(F)F)c4)cc3)CC2)C1 + Oc1cc(-c2nc(-c3ccccc3)[nH]c2-c2ccncc2)ccc1Cl [L779450] (first compound 2 µM, partner dose 1 µM) | 29.5% | 81.5% | 58.3% | 81.7% | 29.3% | 55.1% | 86.3% | 81.4% | 32% | 19%
CC1(C)CCC(c2ccc(Cl)cc2)=C(CN2CCN(c3ccc(C(=O)NS(=O)(=O)c4ccc(N[C@H](CCN5CCOCC5)CSc5ccccc5)c(S(=O)(=O)C(F)(F)F)c4)cc3)CC2)C1 + CC(=O)c1c(C)c2cnc(Nc3ccc(N4CCNCC4)cn3)nc2n(C2CCCC2)c1=O [palbociclib] (first compound 2 µM, partner dose 0.2 µM) | 52.8% | 67.2% | 54.9% | 51.7% | 48.5% | 59.5% | 58% | 43.2% | 30.9% | 34.9%
